Measured values: PubChem BioAssay AID1794842 (National Center for Advancing Translational Sciences (NCATS), 2023)
Among all 2,800 compounds or so, fewer than 10 were called active. The call rests on the fitted dose curve; in most records, active means well fitted curve in the direction sought with a large enough effect; inconclusive means small, poorly fitted or top-dose-only effect, or another doubt; inactive means no such curve, though single readings can be large or run the other way. Some of the results follow.

Biological target: Metallo-beta-lactamase type 2 (Klebsiella pneumoniae) (UniProt C7C422)
Experiment: qHTS to identify inhibitors of the New Delhi Metallo-beta-lactamase (NDM): Meropenem screen against the machine-based learning selections. Further: % of control where 0% means no effect.
Details: Purified NDM-1, meropenem hydrolysis, absorbance 300 nm; at 38.4 µM (top of the series) unless noted
In short: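 NDM-1 (2 nM final) in 50 mM HEPES pH 7.0, 1 uM Zn2SO4, 0.01% Tween20 was preincubated with compounds for >30 min. Nitrocefin (16.7 uM final) was read at 485 nm after 15 min, and meropenem (50 uM final) at 300 nm after 30 min.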

Chain of UniProt C7C422 (C7C422 whole entry, looked up): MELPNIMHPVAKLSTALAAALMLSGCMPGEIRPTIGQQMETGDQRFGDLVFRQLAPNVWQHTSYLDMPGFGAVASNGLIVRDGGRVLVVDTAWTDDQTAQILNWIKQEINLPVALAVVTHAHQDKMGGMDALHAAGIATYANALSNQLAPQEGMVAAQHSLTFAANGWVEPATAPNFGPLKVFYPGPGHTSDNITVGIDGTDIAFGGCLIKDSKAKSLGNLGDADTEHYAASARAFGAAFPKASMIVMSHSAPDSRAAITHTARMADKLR

Activity change, negative = inhibition, inactive:
C[C@@H](Nc1ccc(-c2nc(CCCc3ccccc3)no2)cn1)C(N)=O 13.1%
O=C(Nc1ccc(F)cc1)N1CC[C@H]2COC(=O)N2c2cc(F)ccc2C1 -1.42% [at 57.5 µM]
CC(C)c1ccc(N2C(=O)N[C@@H]3CCN(S(=O)(=O)c4cccs4)[C@@H]3C2=O)cc1 1.99% [at 57.5 µM]
Cc1noc2nc3c(c(C(=O)N[C@H]4CC[C@H]4N)c12)CCC3 8.23%
Cc1ccc([S+](=O)([O-])N2CCn3c(nnc3-c3ccccc3)C2)cc1 0.0143%
O=C(NCC1CN(Cc2ccncc2)CC12CN(c1ccccc1)C2)Nc1ccccc1 (centres undefined) -1.7% [at 57.5 µM]
CCCN1CC2(CCN(Cc3cn[nH]c3C(=O)O)CC2)CC1C(=O)O (centres undefined) 32.3%
CC(C)NC(=O)N[C@H]1CCN(C(=O)c2cnccn2)[C@@H]1C(=O)N[C@@H](Cc1cccs1)C(N)=O 3.59%
Cc1ccc(-n2nc3n(c2=O)CCN(C(=O)c2ccccc2C)C3)cc1 -0.0608% [at 57.5 µM]
Cc1ccccc1-c1[nH]nc2ncc(-c3cn[nH]c3)nc12 3.81% [at 76.7 µM]
Cc1cnn(Cc2cc(C(=O)N3CCCCCC3c3nnc(-c4ccccc4)o3)no2)c1 (centres undefined) 10.9%
CC1=C[C@@H](CNS(C)(=O)=O)[C@H](C(C)C)C[C@H]1Cc1nc2ccc(Cl)cc2[nH]1 5.83% [at 57.5 µM]
COC(=O)c1cc2n(n1)CCN(C(=O)c1cccc3c1OCC3)C2 0.0731%
CNC(=O)[C@@H](Cc1ccccc1)N1CCC[C@H]1C(=O)N1CCCCC1 1.5% [at 57.5 µM]
C#CCNC(=O)c1onc(-c2ccc(F)cc2)c1[C@H](C)O 32.7% [at 76.7 µM]
O=C1NC(=O)C(c2ccc(-c3ccc4nc[nH]c(=O)c4c3)cc2)N1 (centres undefined) 7.87%
COc1ccc(C(=O)NCC2(COc3ccc(S(C)(=O)=O)cc3)C[C@@H](O)[C@@H](O)C2)cc1 (some centres undefined) 2.29%
CC(C)(C)c1coc([C@@H]2COCCN2Cc2ccc(F)cc2)n1 -0.0731% [at 57.5 µM]
N#Cc1cccc(CN2CC[C@H](c3nnc(-c4ccco4)o3)C2)c1 0.792% [at 57.5 µM]
CCOc1ccc(C(=O)N2CCC3(CC2)N(C)C(=O)CS3(=O)=O)cc1 0.778%
O=C1N[C@@H]2CCN(S(=O)(=O)c3ccccc3)[C@@H]2C(=O)N1c1ccc(F)cc1 1.24% [at 57.5 µM]
Cc1ccc(CN2CC[C@@H]3[C@H]2C(=O)NC[C@H](CCC(=O)N2CCCC2)N3C)cc1 9.64% [at 57.5 µM]
CC(=O)N[C@H]1C[C@@H](c2cnc3ccccc3c2)O[C@@H](C2CCCCC2)C1 1.55%
Cc1ccc(S(=O)(=O)NC[C@H]2OC[C@@H](NCC(C)(C)C)[C@@H]2O)cc1 -0.0117% [at 57.5 µM]
COCC(=O)N1CC2(Cc3ccccc3N(C(C)=O)C2)C1 0.591% [at 57.5 µM]
CN1[C@@H](CCC(=O)N2CCc3ccccc32)CNC(=O)[C@@H]2[C@H]1CCN2Cc1ccc(O)cc1 1.1%
COCC[C@]1(O)CCN(C(=O)c2cccc(OC)c2C)C[C@H]1C 0%
Cn1ccc2c(C(=O)NCc3cccnc3)nc(-c3ccc(CO)cc3)cc21 0.607% [at 57.5 µM]
C[C@]1(O)CCN(C(=O)c2cnn3cc(CCO)cnc23)C[C@@H]1O -2.74%
O=C(c1ccc(Cn2cnnn2)cc1)N1CCC2(CC1)[C@H](O)C[C@@H]2OCCO 1.04%
CCCCCC(=O)N1CC[C@@H](CC(=O)NCc2cccs2)[C@@H](CC)C1 2.79% [at 57.5 µM]
COc1ccc(S(=O)(=O)NC[C@H]2COCc3nc4c(C)cccc4n32)cc1 1.7% [at 57.5 µM]
Cc1cn2c(=O)cc(CN3CC(=O)N(C)c4ccccc4C3=O)nc2s1 -1.51%
CC(C)(O)CCc1cccc(C(=O)NC2CCN(c3ncccc3C#N)CC2)c1 -3.17%
CC1(C)[C@H](Cc2cc(CC3CCCCC3)on2)C[C@@H]1NC(=O)c1ccccc1 2.19% [at 57.5 µM]
O=C(Nc1ccc([C@@H](O)[C@H]2COCC(=O)N2Cc2ccc(F)cc2)cc1)c1ccccc1 2.6% [at 57.5 µM]
CN(C)C(C(=O)N1CCN(c2ncccc2C#N)CC1)c1cccc(F)c1 (centres undefined) 2.61%
CNc1cccnc1OC1CCN(S(=O)(=O)c2ccc3c(c2)CCC3)C1 (centres undefined) 0.362%
CCc1n[nH]c(CC2CCN(C(=O)COc3ccc(F)cc3)CC2)n1 0.561%
COC(=O)c1ccc2c(c1)nc1n2[C@@H](CNC(=O)NC2CCCCC2)COC1 -0.992% [at 57.5 µM]
COc1ccc2[nH]c(C(=O)N3CCn4nc(CO)cc4C3)c(C)c2c1 9.12%
c1ccc(Nc2cc3c(cn2)NCCN(Cc2ccccn2)C3)cc1 16.8% [at 57.5 µM]
Cc1ccc(CN2CC[C@H](c3nc4cc(C)ccc4o3)C2)cc1 -0.245% [at 57.5 µM]
CC[C@@H](NC(=O)c1cc(S(N)(=O)=O)ccc1C)C1CC(O)C1 (some centres undefined) 0.0363%
CC1(C(=O)NCc2ccncc2)CCc2cnc(NCc3ccccc3)nc21 (centres undefined) 0.467% [at 57.5 µM]
O=C(O)Cn1ccc2cc(OCc3cccc(-c4ccncc4)c3)cnc21 19.6% [at 57.5 µM]
COc1cccc(-c2cc(C(=O)O)cc(S(=O)(=O)N3CCSCC3)c2)c1 -0.198%
O=C1N(Cc2ccccn2)C[C@H]2CN(Cc3cccc(OC(F)(F)F)c3)CCN12 0.412% [at 57.5 µM]
CNC(=O)c1cccc(-c2cnc(Nc3cccnc3)c3c2CCO3)c1 0.548% [at 57.5 µM]
